# Reference: PubChem BioAssay (Tox21)
# Where “and” joins values, the source holds several entries; their conditions need not be identical. Equal entries are not always repeated. This list was built around the results that the source calls inconclusive (neither active nor inactive); the mix of calls is not that of the screen. For part of these data: Where the call is inconclusive, the potency comes from a doubtful curve fit. Some structures have more than one record in an assay (separate samples or runs), and their calls can disagree. Calls of active or inactive are those of the source. Unless noted, calls come from the whole dose curve; as a rule, active = well fitted curve in the direction sought with a large enough effect in the repeat runs; inconclusive = weak or mixed curves; inactive = no such curve, though single readings can be large; an effect the other way counts as inactive or inconclusive.
# How the values were obtained:
# [1] = qHTS assay to identify small molecule that activate the aryl hydrocarbon receptor (AhR) signaling pathway - cell viability counter screen (AID 743086); note: nearly all actives have a fitted effect of over 45% in size; note: potency is the fitted concentration of half-maximal effect;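 for viability change, negative = cytotoxic: HepG2 liver cells carrying the AhR DRE luciferase reporter; % is set by controls: 0 for no effect and ±100 for the full control effect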
# Summary of the method: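 HepG2-AhR-luc (HG2L7.5c1) cells, 4000/well, were preincubated 5 h at 37C, exposed to compound in qHTS format for 24 hr at 37C, then given CellTiter-Fluor for 30 min; viability was read as fluorescence in the reporter wells.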
# [2] = qHTS assay for small molecule agonists of the antioxidant response element (ARE) signaling pathway - cell viability counter screen (AID 743203; calls by dose curve; note: potency is the fitted concentration of half-maximal effect; nearly all actives have a fitted effect of over 55% in size); conditions: ARE-bla HepG2 viability, CellTiter-Glo luminescence, 16 h; viability change, negative = cytotoxic: at 73.3 µM (top of the series)
# Summary of the method: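 Viability counter screen: CellTiter-Glo luminescence, read after 30 min at room temperature, in ARE-bla HepG2 wells. Compound exposure lasted 16 h at 37C/5% CO2, following a 5 h pre-incubation of the cells after plating.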
# [3] = qHTS assay for small molecule activators of the heat shock response signaling pathway (AID 743210; active = well fitted activation curve with a large enough effect in the signal ratio in the repeat runs, with a control signal flat, not every such curve was filed as active; inconclusive = weak or mixed curves; the % refers to the signal ratio; note: potency is the fitted concentration of half-maximal effect); conditions: HeLa HSE-bla reporter, beta-lactamase ratio, 5 h; activation: at 62.6 µM (top of the series)
# Summary of the method: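 Heat shock element–beta-lactamase HeLa reporter cells; qHTS with compounds for 5 h at 37 C; detection by FRET substrate fluorescence after 2.5 h at RT.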
# [4] = qHTS assay to identify small molecule agonists of the peroxisome proliferator-activated receptor delta (PPARd) signaling pathway - cell viability counter screen (AID 743211); conditions: PPARd-bla HEK293H viability, CellTiter-Glo luminescence, 17 h; activity change, negative = cytotoxicity: at 62.6 µM (top of the series); note: nearly all actives have a fitted effect of over 55% in size; note: potency is the fitted concentration of half-maximal effect; for activity change, negative = cytotoxicity: % is set by controls: 0 for no effect and ±100 for the full control effect
# Summary of the method: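 PPARd-bla HEK293H cells (3000/well) were pre-incubated 5 h at 37 C, then exposed to compound for 17 h at 37 C. After 2 h with LiveBLAzer substrate, CellTiter-Glo was added to the same wells; luminescence read after 30 min at room temperature.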
# [5] = qHTS assay to identify small molecule antagonists of the peroxisome proliferator-activated receptor delta (PPARd) signaling pathway - cell viability counter screen (AID 743213); conditions: PPARd-bla HEK293H viability, CellTiter-Glo luminescence, 17 h; viability change, negative = cytotoxic: at 62 µM (top of the series) unless noted; note: potency is the fitted concentration of half-maximal effect; nearly all actives have a fitted effect of over 50% in size
# Summary of the method: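 Same-well viability: cells pre-incubated 5 h, dosed with compound plus 300 nM L165041, kept 17 h at 37 C, FRET substrate 2 h RT, then CellTiter-Glo 30 min RT and luminescence.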
# [6] = biological target: Peroxisome proliferator-activated receptor delta (Homo sapiens) (UniProt Q03181); experiment: qHTS assay to identify small molecule antagonists of the peroxisome proliferator-activated receptor delta (PPARd) signaling pathway (AID 743215; active = well fitted inhibition curve with a large enough effect in the signal ratio in the repeat runs, not every such curve was filed as active; inconclusive = weak or mixed curves, or effect the other way; inactive = no such curve, though single readings can be large or run the other way; the % refers to the signal ratio;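 note: cells stimulated with agonist L165041 at 300 nM final during compound exposure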; note: potency is the fitted concentration of half-maximal effect); conditions: HEK293H PPARd-UAS-bla, beta-lactamase FRET ratio, antagonist, 17 h; ratio activity, negative = inhibition: at 62 µM (top of the series) unless noted
# Summary of the method: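 Agonist L165041 (300 nM final) added with compound to PPARd-bla HEK293H UAS-bla reporter cells; 17 h incubation at 37 C. Read-out: LiveBLAzer FRET substrate, 2 h at room temperature, fluorescence intensity.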
# [7] = qHTS assay to identify small molecule agonists of the farnesoid-X-receptor (FXR) signaling pathway - cell viability counter screen (AID 743218); conditions: FXR-bla HEK293T viability, CellTiter-Glo luminescence, 16 h; viability change, negative = cytotoxic: at 62.6 µM (top of the series) unless noted; note: potency is the fitted concentration of half-maximal effect; nearly all actives have a fitted effect of over 45% in size
# Summary of the method: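 Viability counter screen in the same wells: CellTiter-Glo luminescence, 30 min room-temperature incubation, measured after the beta-lactamase read. Cells were GeneBLAzer FXR-UAS-bla HEK 293T, compound-treated 16 h at 37C.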
# [8] = biological target: Vitamin D3 receptor (Homo sapiens) (UniProt P11473); experiment: qHTS assay to identify small molecule antagonists of the vitamin D receptor (VDR) signaling pathway (AID 743223; active = well fitted inhibition curve with a large enough effect in the signal ratio in the repeat runs, not every such curve was filed as active; inconclusive = weak or mixed curves, or effect the other way; inactive = no such curve, though single readings can be large or run the other way; the % refers to the signal ratio; note: potency is the fitted concentration of half-maximal effect); conditions: VDR-UAS-bla HEK293T, beta-lactamase FRET ratio, 16 h; activity change, negative = inhibition: at 61 µM (top of the series) unless noted
# Summary of the method: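 VDR-bla cells were treated with compound plus 3 nM final 1alpha,25-dihydroxyvitamin D3 for 16 h at 37C. Beta-lactamase reporter read by B/G FRET substrate fluorescence after 2 h at room temperature. qHTS format.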
# [9] = qHTS assay to identify small molecule agonists of the vitamin D receptor (VDR) signaling pathway - cell viability counter screen (AID 743224); conditions: VDR-bla HEK293T viability, CellTiter-Glo luminescence, 16 h; activity change, negative = cytotoxicity: at 62.6 µM (top of the series) unless noted; note: potency is the fitted concentration of half-maximal effect; nearly all actives have a fitted effect of over 50% in size
# Summary of the method: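 Counter screen run in the same wells as the VDR-bla reporter assay: CellTiter-Glo luminescence, 30 min at room temperature, after 16 h compound treatment at 37C of cells pre-plated for 4 h.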
# [10] = biological target: Peroxisome proliferator-activated receptor gamma (Homo sapiens) (UniProt P37231); experiment: qHTS assay to identify small molecule agonists of the peroxisome proliferator-activated receptor gamma (PPARg) signaling pathway (AID 743094; active = well fitted activation curve with a large enough effect in the signal ratio in the repeat runs, not every such curve was filed as active; inconclusive = weak or mixed curves, or effect the other way; inactive = no such curve, though single readings can be large or run the other way; the % refers to the signal ratio; note: potency is the fitted concentration of half-maximal effect; for activation: % is set by controls: 0 for no effect and ±100 for the full control effect); conditions: HEK293H PPARg-UAS-bla, beta-lactamase FRET ratio, 17 h; activation: at 57 µM (top of the series) unless noted
# Summary of the method: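 Agonist activity was taken from a beta-lactamase reporter (FRET substrate, 1 h at room temperature) in HEK293H cells carrying a PPARg UAS-bla construct. Compounds in DMSO were incubated 17 h at 37C after a 5 h cell pre-incubation.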
# [11] = qHTS assay to identify small molecule antagonists of the peroxisome proliferator-activated receptor gamma (PPARg) signaling pathway - cell viability counter screen (AID 743194); conditions: PPARg-bla HEK293H viability, CellTiter-Glo luminescence, 17 h, co-treated with 50 nM rosiglitazone; activity change, negative = cytotoxicity: at 62.6 µM (top of the series) unless noted; note: potency is the fitted concentration of half-maximal effect; nearly all actives have a fitted effect of over 55% in size
# Summary of the method: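 PPARg-UAS-bla HEK293H cells were plated, rested 5 h at 37 C, then treated with compounds plus rosiglitazone (50 nM final) for 17 h at 37 C; viability was then read by CellTiter-Glo luminescence after 30 min at room temperature.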
# [12] = qHTS assay for small molecule agonists of the antioxidant response element (ARE) signaling pathway (AID 743202; active = well fitted activation curve with a large enough effect in the signal ratio in the repeat runs, not every such curve was filed as active; inconclusive = weak or mixed curves, or effect the other way; inactive = no such curve, though single readings can be large or run the other way; the % refers to the signal ratio; note: potency is the fitted concentration of half-maximal effect); conditions: HepG2 ARE-bla reporter, beta-lactamase FRET, 16 h; for Potency: activation: at 73.3 µM (top of the series) unless noted
# Summary of the method: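 Following a 16 h, 37 C exposure of reporter HepG2 cells (ARE-driven beta-lactamase, 2,000 cells/well) to compounds, FRET substrate was applied for 2 h at room temperature and fluorescence intensity recorded.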
# [13] = biological target: Peroxisome proliferator-activated receptor gamma (Homo sapiens) (UniProt P37231); experiment: qHTS assay to identify small molecule antagonists of the peroxisome proliferator-activated receptor gamma (PPARg) signaling pathway (AID 743191; calls by dose curve; note: % is set by controls: 0 for no effect and ±100 for the full control effect; nearly all actives have a fitted effect of over 30% in size); conditions: HEK293H PPARg-UAS-bla, beta-lactamase ratio, antagonist, 17 h
# Summary of the method: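 GeneBLAzer PPARg UAS-bla HEK293H cells carrying a UAS-driven beta-lactamase reporter were plated at 3000 cells/well, preincubated 5 h at 37C, then given compound for 17 h at 37C; LiveBLAzer B/G FRET substrate was read after 1 h at room temperature.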
# [14] = biological target: Peroxisome proliferator-activated receptor delta (Homo sapiens) (UniProt Q03181); experiment: qHTS assay to identify small molecule agonists of the peroxisome proliferator-activated receptor delta (PPARd) signaling pathway (AID 743212; calls by dose curve; note: % is set by controls: 0 for no effect and ±100 for the full control effect); conditions: HEK293H PPARd-UAS-bla, beta-lactamase FRET ratio, 17 h; activation: at 62.6 µM (top of the series) unless noted
# Summary of the method: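 Beta-lactamase reporter read by fluorescence (LiveBLAzer B/G FRET, 2 h, room temperature). Test agents, in DMSO, incubated at 37 C with PPARd-bla HEK293H cells.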
# [15] = qHTS assay to identify small molecule antagonists of the vitamin D receptor (VDR) signaling pathway - cell viability counter screen (AID 743225); conditions: VDR-bla HEK293T viability, CellTiter-Glo luminescence, 16 h; viability change, negative = cytotoxic: at 61 µM (top of the series) unless noted; note: potency is the fitted concentration of half-maximal effect; nearly all actives have a fitted effect of over 50% in size
# Summary of the method: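 VDR-UAS-bla HEK 293T cells were plated and incubated 4 h at 37C, then dosed with compound plus 3 nM (final) 1-alpha,25-dihydroxyvitamin D3 for 16 h. After the 2 h beta-lactamase read, viability in the same wells was read as CellTiter-Glo luminescence after 30 min at room temperature.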
# Tags give direction and shape of the fitted curve or compound fluorescence and quenching.
# Chain of UniProt Q03181 (Q03181 whole entry, looked up): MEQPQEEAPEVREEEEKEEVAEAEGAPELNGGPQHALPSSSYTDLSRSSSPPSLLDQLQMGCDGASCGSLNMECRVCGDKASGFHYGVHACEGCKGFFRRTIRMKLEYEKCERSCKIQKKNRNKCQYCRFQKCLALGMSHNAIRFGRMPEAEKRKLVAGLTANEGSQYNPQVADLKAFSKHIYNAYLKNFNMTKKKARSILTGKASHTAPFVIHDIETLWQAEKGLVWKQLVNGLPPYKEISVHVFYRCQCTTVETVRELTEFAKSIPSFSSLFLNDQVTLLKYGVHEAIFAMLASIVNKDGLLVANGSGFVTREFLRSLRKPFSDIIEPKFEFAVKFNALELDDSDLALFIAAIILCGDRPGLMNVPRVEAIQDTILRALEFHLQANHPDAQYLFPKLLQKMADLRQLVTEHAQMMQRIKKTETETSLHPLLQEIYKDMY
# Chain of UniProt P37231 (P37231 whole entry, looked up): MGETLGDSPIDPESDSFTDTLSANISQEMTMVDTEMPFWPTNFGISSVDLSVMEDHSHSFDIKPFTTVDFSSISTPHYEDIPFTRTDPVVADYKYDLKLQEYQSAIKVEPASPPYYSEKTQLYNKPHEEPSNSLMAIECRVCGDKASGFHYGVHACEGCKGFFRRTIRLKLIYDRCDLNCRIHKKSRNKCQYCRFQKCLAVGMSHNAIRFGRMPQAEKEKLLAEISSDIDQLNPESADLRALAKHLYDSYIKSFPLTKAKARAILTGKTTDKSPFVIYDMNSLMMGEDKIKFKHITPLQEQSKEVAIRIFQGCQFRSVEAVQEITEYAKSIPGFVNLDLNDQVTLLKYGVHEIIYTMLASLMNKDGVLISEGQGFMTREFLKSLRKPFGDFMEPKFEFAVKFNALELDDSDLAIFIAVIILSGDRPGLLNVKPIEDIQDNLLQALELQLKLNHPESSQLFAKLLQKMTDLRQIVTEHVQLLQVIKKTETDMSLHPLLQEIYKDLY
# Chain of UniProt P11473 (P11473 whole entry, looked up): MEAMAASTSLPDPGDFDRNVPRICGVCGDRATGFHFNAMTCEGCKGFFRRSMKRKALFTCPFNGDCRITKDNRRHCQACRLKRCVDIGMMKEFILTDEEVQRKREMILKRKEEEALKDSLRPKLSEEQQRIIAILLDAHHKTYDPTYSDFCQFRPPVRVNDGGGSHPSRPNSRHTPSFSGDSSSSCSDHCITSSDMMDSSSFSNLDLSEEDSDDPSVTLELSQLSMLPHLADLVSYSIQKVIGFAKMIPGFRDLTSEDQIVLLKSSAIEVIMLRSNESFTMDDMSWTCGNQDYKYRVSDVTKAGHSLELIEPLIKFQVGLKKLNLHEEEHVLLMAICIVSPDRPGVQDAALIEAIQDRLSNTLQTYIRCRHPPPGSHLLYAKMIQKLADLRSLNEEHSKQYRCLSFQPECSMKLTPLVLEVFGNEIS
structure (smiles),measurement,setting,value
CC(=O)O[C@]1(C(C)=O)CC[C@H]2[C@@H]3C=C(Cl)C4=CC(=O)[C@@H]5C[C@@H]5[C@]4(C)[C@H]3CC[C@@]21C,Potency,[1],inactive
same,Potency,[2],"inconclusive: 61.1 µM [cytotoxic, single point]"
same,Potency,[3],inconclusive: 58.2 µM
same,Potency,[4],"inconclusive: 54.9 µM [cytotoxic, single point]"
same,Potency,[5],"inconclusive: 54.9 µM [cytotoxic, partial curve, poor fit]"
same,Potency,[6],"inconclusive: 24.5 µM [rising, partial curve]"
same,Potency,[7],"inconclusive: 61.6 µM [cytotoxic, single point]"
same,Potency,[8],"inconclusive: 24.5 µM [fluorescent, partial curve, poor fit] and inconclusive: 16.9 µM [fluorescent, partial curve, poor fit]"
same,Potency,[9],active: 48.9 µM
ClC1=C(Cl)C(Cl)(Cl)C(Cl)=C1Cl,Potency,[10],inconclusive: 17.5 µM [partial curve]
same,activation,[10],inconclusive: -7.55%
same,Potency,[11],active: 2.2 µM and active: 3.09 µM
same,Potency,[12],"inconclusive: 4.35 µM [falling, full curve] and inconclusive: 8.63 µM [falling, full curve]"
same,Potency,[4],inactive
same,"ratio activity, negative = inhibition",[6],inconclusive: 8.01% [at 80.4 µM]
CN(C)c1cccc(O)c1,Potency,[10],inactive
same,"ratio activity, negative = inhibition",[13]; at 81.1 µM (top of the series),inactive: -22.9%
same,"ratio activity, negative = inhibition","[13]; ratio activity, negative = inhibition: at 62.6 µM (top of the series) unless noted",inconclusive: -22.7%
same,Potency,[11],"inconclusive: 7.88 µM [rising, partial curve, poor fit]"
same,Potency,[12],active: 55.3 µM and inconclusive: 27.3 µM
same,activation,[14],inconclusive: 2.38%
same,Potency,[5],"inconclusive: 198 nM [cytotoxic, single point] and inconclusive: 49 µM [cytotoxic, single point]"
same,Potency,[15],"inconclusive: 0.352 µM [cytotoxic, partial curve, poor fit]"
O=P(O)(O)O,Potency,[1],"inconclusive: 11.9 µM [falling, partial curve, poor fit]"
same,activation,[12]; at 73.3 µM (top of the series),inconclusive: -10.6%
same,activation,[12]; at 94.8 µM (top of the series),inconclusive: 8.74%
same,Potency,[5],"inconclusive: 0.0249 µM [cytotoxic, full curve, poor fit]"
same,Potency,[7],"inconclusive: 2.49 µM [rising, full curve, poor fit]"
same,"activity change, negative = inhibition",[8],inconclusive: 0.13%
same,Potency,[15],active: 5.49 µM
